# Results taken from the RNAGym collection of RNA variant scans (doi:10.1093/nar/gkz1192).
# Read counts are not given, so values of variants with three or more changes are uncertain.
# B1: CPEB3 Ribozyme (parent)
# chain: UAACAGGGGGCCACAGCAGAAGCGUUCACGUCGCAGCCCCUGUCAGAUUCUGGUGAAUCUGCGAAUUCUGCUGUAUAUCUC
# Variants of: B1
# Assay: self-cleavage, relative activity (ratio to wild type); higher = more cleavage; in vitro, sequencing
# Outline: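 Libraries of CPEB3 self-cleaving ribozyme mutants came from rounds of error-prone PCR and carried barcodes, which DNA sequencing matched to variants. In vitro transcription used T7 RNA polymerase at 37°C for 5 hours, with a further 15 min in DNase I before EDTA stopped the reaction; the ribozymes cleaved during both steps. The RNA was reverse transcribed with template switching and sequenced on Illumina. Relative activity is the cleaved/total read fraction of a variant divided by that of the unmutated ribozyme, averaged over three batches with at least 5 reads.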
row,Variant,self-cleavage
1,A5U U31A U41C A77U,0.52
2,A5U U31A U41C G46A U48G,0.11
3,A5U U31C A35G U72C,1.17
4,A5U U31C G61A U66C,0.21
5,A5U U31C U41C,0.78
6,A5U U31C U60A U67C,0.22
7,A5U U31C U67A,0.35
8,A5U U31C U67C U80C,0.22
9,A5U U31C U78C,0.99
10,A5U U41A A45U A64U C68U,0.18
11,A5U U41A U43C A47U U49C U76C,0.09
12,A5U U41A U60A U78A,0.14
13,A5U U41C A56G A57G,0.36
14,A5U U41C A56G U60C A64G A77G,0.3
15,A5U U41C A57G U78C,0.7
16,A5U U41C U51C,0.94
17,A5U U41C U54C A65G C81U,0.41
18,A5U U41C U69C,0.61
19,A5U U43A A47G A56U,0.51
20,A5U U43A A56G U58C,0.27
21,A5U U43A A56G U80C,0.91
22,A5U U43A A75U,1.19
23,A5U U43A U66C,0.22
24,A5U U43C A56G,0.34

row,Variant,self-cleavage
1,A5U U43C A64U U72C U76C,0.19
2,A5U U43C U74C U78C,0.36
3,A5U U43G U54C,0.41
4,A5U U48C G52A A75G,0.7
5,A5U U48C U54C U69C U80C,0.19
6,A5U U51A U72A,0.92
7,A5U U51C A56G U58C A75G U80C,0.2
8,A5U U51C A56G U78C,0.73
9,A5U U51G A64U C68U,0.28
10,A5U U54A A65U U72C U80C,0.38
11,A5U U60A U67C,0.58
12,A5U U60A U72C,0.85
13,A5U U60C U72C,0.55
14,A5U U67C U80A,0.11
15,A5U U69A U80A,1.08
16,G6A A13C A45G U49C A57G,0.18
17,G6A A13C U80C,0.42
18,G6A A13G A18G C40U,0.25
19,G6A A13G C37A U80C,0.08
20,G6A A13U A15G U49A A64U,0.04
21,G6A A13U A21G U67C G70A U80A,0.08
22,G6A A13U C14U A18U C27G A45C U54C,0.06
23,G6A A13U C34A G52C,0.11
24,G6A A13U U26A A75G,0.12

row,Variant,self-cleavage
1,G6A A15C U51C,0.38
2,G6A A15G C23G C27G A35U U67A,0.05
3,G6A A15G U25C U26C C44U A64G,0.05
4,G6A A15G U26A U76C,0.09
5,G6A A15G U26C U41A A56G U60A,0.03
6,G6A A15G U41C U43C U74A U76C,0.12
7,G6A A15U G30U U41A A56G U76A,0.24
8,G6A A15U U78C,0.31
9,G6A A18C U31C U51C A77G U80C,0.21
10,G6A A18G A20U A21U C40A A45G U51C,0.05
11,G6A A18G A57G U58C,0.09
12,G6A A18U A28C,0.21
13,G6A A18U G24U U72A,0.11
14,G6A A18U U31C A35U U54C,0.15
15,G6A A20G A28G A35G A45G U67A,0.08
16,G6A A20G A28G U43C A65G U66C,0.05
17,G6A A20G C39A U60C U67C,0.06
18,G6A A20G U25C U80C,0.09
19,G6A A20G U48C U51C A57G,0.12
20,G6A A20G U51A,0.32
21,G6A A20G U60C,0.35
22,G6A A20U C40G U69A,0.17
23,G6A A20U U25C U58C G70C,0.12
24,G6A A20U U43A,0.35

row,Variant,self-cleavage
1,G6A A20U U54A U69A,0.11
2,G6A A21G G30A A57G U66C,0.13
3,G6A A21G U31C U67A,0.05
4,G6A A21U C50A U58A,0.07
5,G6A A28C U54C A64U A77G,0.05
6,G6A A28G A45G A75G,0.03
7,G6A A28G A56G A57G U60G U69C,0.03
8,G6A A28U A64U U80C,0.07
9,G6A A28U U49C A64G,0.07
10,G6A A28U U66A A77U,0.1
11,G6A A35U A64G U76A,0.1
12,G6A A35U C39A U43C U58A U69G,0.04
13,G6A A45G U54C A56G A57U,0.04
14,G6A A45G U67C U72C,0.09
15,G6A A56G G70C,0.08
16,G6A C11G A15G U51C,0.23
17,G6A C11G U54C,1.23
18,G6A C11U A13G A15G A21G,0.07
19,G6A C11U A45G U49C A64C,0.06
20,G6A C11U U25C A64G U72C U78C,0.05
21,G6A C12A A18G C27G A28G A47C U54C,0.17
22,G6A C12A A21G G22A U54C,0.07
23,G6A C12A U31C U67A,0.07
24,G6A C12U A21G U43C A64G U76A U78C,0.07

row,Variant,self-cleavage
1,G6A C12U A28G U41C C81A,0.23
2,G6A C14A A20U C34G,0.06
3,G6A C17G A35U U49A U72G U76C,0.06
4,G6A C27A A75G,0.2
5,G6A C27U A35G U69A A75U,0.11
6,G6A C37U A57U A65G,0.13
7,G6A C37U U49C G53U U80C,0.19
8,G6A C37U U51A,0.07
9,G6A C37U U51A U69C,0.13
10,G6A C37U U74C U78C,0.17
11,G6A C38U U51G,0.12
12,G6A C38U U72A,0.16
13,G6A C40A U72C U74A,0.16
14,G6A C59U A75U,0.08
15,G6A G8C A20U U31C U60A,0.18
16,G6A G8U U69C,0.16
17,G6A G9U A28G A57G,0.09
18,G6A G10A A18U G63A U72A,0.05
19,G6A G10A A21G U69C U72C,0.06
20,G6A G10A A28G U49C U69A U80C,0.05
21,G6A G10A C11G C34G,0.31
22,G6A G10A U49A A56G U72C,0.2
23,G6A G16A A21G C34A U69A U72C,0.06
24,G6A G16C A28G U76C,0.07

row,Variant,self-cleavage
1,G6A G19A U25C U31A U41C U51A,0.05
2,G6A G53A A56U U58C,0.05
3,G6A U25A A56G,0.17
4,G6A U25C A35U U43C U49C,0.27
5,G6A U25C A56C,0.11
6,G6A U25C A56G U60C,0.3
7,G6A U25C A65G U80A,0.2
8,G6A U25C C27A U49A U66C U67C U72C,0.04
9,G6A U25C U54C,0.28
10,G6A U25C U54C U72C,0.25
11,G6A U26A U54A G63C U69G U78A,0.02
12,G6A U26A U54C,0.4
13,G6A U26C A45C U48C A56G U78C,0.07
14,G6A U26C U43C A47U G53U U54C,0.11
15,G6A U26C U51A A56G U76A U78C,0.07
16,G6A U26C U51C U69C A75G,0.06
17,G6A U26G G42U U78C,0.04
18,G6A U31C U41C U54A,0.1
19,G6A U41A A45U U51A U58G,0.24
20,G6A U41C A75G,0.4
21,G6A U43A A45G G61C,0.17
22,G6A U43A A64G U66A U74C,0.04
23,G6A U43A U60A U72C,0.15
24,G6A U48C A75U,0.08

row,Variant,self-cleavage
1,G6A U48C U69C A75G U80A,0.08
2,G6A U51A U54C A64U,0.15
3,G6A U54A G61U,0.16
4,G6A U54C C79U,0
5,G6A U67C U69A U72C,0.06
6,G6A U72C U76C,0.67
7,G6C A13U A28U C39A A56G,0.05
8,G6C A15G U31C U43A,0.04
9,G6C A18G U25C U60C,0.43
10,G6C A21G U43C A57G A75U U80C,0.06
11,G6C A35G U41A U72A,0.15
12,G6C A35U U41C U67C,0.14
13,G6C C32A A35G U43C U69C,0.23
14,G6C C34A U41A C79U,0.36
15,G6C C44U A56G,0.29
16,G6C G16C A20G U25C U49C A56U,0.27
17,G6C U25C U51A U67C U69A U74G,0.06
18,G6C U26A A56U,0.2
19,G6C U26A A77G,0.08
20,G6C U41A A57G,0.1
21,G6C U41G U49A U74C U78A,0.22
22,G6U A13C G16C U69A,0.21
23,G6U A13G A28C U72C,0.08
